# Measured values taken from paper PMC4336329 (PLoS ONE, 2015).
# About 14,000 (4.5%) of roughly 310,000 compounds showed an effect of 50% or more. The effect is printed as a negative number. The list shows a part of the results.
# Target: human ether-à-go-go-related gene (hERG) potassium channel (human, UniProt Q12809)
# Test: primary screen, population patch clamp on CHO cells stably expressing hERG
# 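Further: peak tail current of the secondary pulse compared with the same well before compound.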
# Chain of human ether-à-go-go-related gene (hERG) potassium channel (Q12809 whole entry, looked up): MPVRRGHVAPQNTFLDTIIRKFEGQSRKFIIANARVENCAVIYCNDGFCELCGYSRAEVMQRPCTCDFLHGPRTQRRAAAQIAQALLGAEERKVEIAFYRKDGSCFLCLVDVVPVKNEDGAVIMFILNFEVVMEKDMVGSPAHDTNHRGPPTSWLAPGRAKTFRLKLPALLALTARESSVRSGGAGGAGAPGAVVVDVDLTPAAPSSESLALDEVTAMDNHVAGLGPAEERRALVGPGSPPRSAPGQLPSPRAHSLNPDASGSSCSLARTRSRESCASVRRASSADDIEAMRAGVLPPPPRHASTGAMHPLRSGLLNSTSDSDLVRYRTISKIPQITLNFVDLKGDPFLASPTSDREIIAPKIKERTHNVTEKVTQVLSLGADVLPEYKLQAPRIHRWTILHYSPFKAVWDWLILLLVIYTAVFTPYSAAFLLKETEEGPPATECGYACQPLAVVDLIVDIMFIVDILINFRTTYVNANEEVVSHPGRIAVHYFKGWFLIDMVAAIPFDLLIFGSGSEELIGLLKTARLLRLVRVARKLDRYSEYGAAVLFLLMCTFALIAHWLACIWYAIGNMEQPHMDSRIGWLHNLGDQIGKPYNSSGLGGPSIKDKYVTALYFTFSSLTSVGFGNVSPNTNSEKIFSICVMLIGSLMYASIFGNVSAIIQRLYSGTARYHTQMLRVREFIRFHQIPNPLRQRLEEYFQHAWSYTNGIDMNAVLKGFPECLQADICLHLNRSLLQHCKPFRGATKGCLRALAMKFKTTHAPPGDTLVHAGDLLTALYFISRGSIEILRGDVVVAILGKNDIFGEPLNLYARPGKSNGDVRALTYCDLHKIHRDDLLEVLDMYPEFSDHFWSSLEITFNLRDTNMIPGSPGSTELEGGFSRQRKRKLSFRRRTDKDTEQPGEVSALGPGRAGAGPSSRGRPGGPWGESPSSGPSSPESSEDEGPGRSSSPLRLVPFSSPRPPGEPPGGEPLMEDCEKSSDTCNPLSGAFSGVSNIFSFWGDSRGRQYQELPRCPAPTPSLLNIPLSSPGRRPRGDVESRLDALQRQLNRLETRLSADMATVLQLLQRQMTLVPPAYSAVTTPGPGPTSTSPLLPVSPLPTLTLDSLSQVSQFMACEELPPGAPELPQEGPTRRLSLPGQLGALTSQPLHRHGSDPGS
row,SMILES,"hERG current change (%, negative = inhibition) at 10uM [%]"
1,CC(C)(C)NC(=O)C1CCN(S(=O)(=O)c2cccc(C(F)(F)F)c2)CC1,-4.16
2,Cc1ccc(CNC(=O)N[C@@H](Cc2ccccc2)C(=O)O)cc1,2.8
3,Cc1ccccc1C(=NCCCN(C)C)c1ccccc1C.Cl,-21.7
4,COc1ccc(Cl)cc1NCCC(O)c1ccc(F)cc1 (stereo not drawn),-0.849
5,O=C(O)c1ccc(NC(=O)c2ccccc2NC(=O)c2cccc(Br)c2)cc1,12.2
6,Cc1sc2c(c1C)c(=O)n(-c1ccc(Cl)cc1)c(=O)n2Cc1cc(=O)n2ccccc2n1,-36.4
7,Cc1cc(OCCn2ccnc2)ccc1C(C)C,0.214
8,CC(=O)c1ccc(-n2c(-c3cc(-c4ccsc4)n[nH]3)n[nH]c2=S)cc1,20.3
9,Cc1ccc(S(=O)(=O)NCCc2nnc(SCc3cccnc3)n2C)cc1,2.38
10,CCCCNc1nc(=S)[nH]c2cc(OC)c(OC)cc12,-43.1
11,CCN(CC)CCCNC(=O)c1cn(CC)c2ccc(S(=O)(=O)N(C)C3CCCCC3)cc2c1=O,-75.7
12,COc1ccccc1CCNCc1ccc(OC)c(OCc2ccccc2)c1,-71.9
13,Cc1ccc2cc(CN(CCCO)S(=O)(=O)c3ccccc3F)c(=O)[nH]c2c1C,-9.6
14,N#CCCN(C(=O)Nc1ccc(Cl)cc1)c1ccccc1,-7.73
15,CC1CCN(c2c(NCC3CCC(C(=O)NCCC4=CCCCC4)CC3)c(=O)c2=O)CC1 (stereo not drawn),0.506
16,CC1Cc2ccccc2N1C(=O)CCS(=O)(=O)c1cccs1 (stereo not drawn),0.682
17,C(=N\c1nc2ccccc2n1CCN1CCCCC1)/c1ccc2c(c1)OCO2,-45.6
18,CC(OC(=O)CSc1ccc(F)cc1)C(=O)NC1(C#N)CCCCC1 (stereo not drawn),9.52
19,CCN1CCN(c2ncc(C(=O)Nc3ccccc3C(=O)OC)c3ccccc23)CC1,-47.2
20,COC(=O)c1c(C)[nH]c(C(=O)C(C)OC(=O)c2c(C)noc2C)c1C (stereo not drawn),2.9
21,Cc1sc2c(c1C)C(=O)/C(=C\Nc1ccncc1)S(=O)(=O)N2C,16.8

row,SMILES,"hERG current change (%, negative = inhibition) at 10uM [%]"
1,c1cc2c(cc1[C@H]1OC[C@H]3[C@@H]1CO[C@@H]3c1ccc3c(c1)OCO3)OCO2,-19.2
2,CSCC[C@H](NC(=O)CC(C)(C)C)c1nc2ccccc2[nH]1,-22
3,CC(=O)Oc1ccc2nc(-c3ccc(Br)o3)oc(=O)c2c1,21.5
4,CCOc1ccc(N(CC(=O)NCCSCc2ccc(C)cc2)S(C)(=O)=O)cc1,10.1
5,CC(=O)Oc1ccc2oc(=O)c3c(c2c1)CCCN3C(=O)CN1CCOCC1,1.97
6,COC/C=C/C1=CC2=CC(=O)C(C)(OC(=O)c3cnc4ccccc4n3)C(=O)C2=CN1C(CO)CO (stereo not drawn),4.76
7,C/C=C/CSc1nc2c(c(=O)[nH]c(=O)n2C)n1Cc1ccc(C)cc1,-6.04
8,Fc1ccc(-n2c(-c3ccc4ccccc4n3)n[nH]c2=S)cc1Cl,31
9,O=C(Nc1ccccc1Cl)OCc1cncs1,21.9
10,CCOC(=O)c1cnn(-c2ncnc3sc(C)c(C)c23)c1N,1.79
11,CCC(C)NC(=O)CSc1nc(-c2cccs2)cc(C(F)(F)F)n1 (stereo not drawn),-2.68
12,COc1cc(NC(=O)CN(C)S(=O)(=O)c2ccc3c(c2)CC(C)N3C(C)=O)cc(OC)c1 (stereo not drawn),-5.42
13,Cc1nnc(SCC(=O)N2CCN(C(=O)c3ccco3)CC2)n1-c1ccccc1,18.2
14,O=C(O)C/C=C(\NC(=O)OCc1ccccc1)C(=O)OCc1ccccc1,10
15,Cc1cccc(NC(=O)CNC(=O)COC(=O)CCS(=O)(=O)c2ccccc2)c1C,15.1
16,FC(F)c1nnc2c(Cl)cc(C(F)(F)F)cn12,17.6
17,COc1ccc(CN(CCC#N)C(=S)NC(=O)c2ccccc2)cc1,0.624
18,COc1ccc(-c2nnc(SC(C)C(=O)NNC(=O)c3ccc(C)cc3)o2)cc1 (stereo not drawn),8.04
19,COc1cc(NS(=O)(=O)c2ccc(NC(=S)NC(=O)CC(C)C)cc2)nc(OC)n1,11.4
20,CCNC(=O)N1CCC(c2nc3ccccc3s2)CC1,10.3
21,COc1ccc(-n2c(COc3ccc(C)cc3)nnc2SCc2ccc(C#N)cc2)cc1,-29.6

row,SMILES,"hERG current change (%, negative = inhibition) at 10uM [%]"
1,COc1ccc(C(C(=O)NC2CCCCC2)N(C(=O)c2snc(C(N)=O)c2N)c2ccc(OC)cc2OC)cc1 (stereo not drawn),9.37
2,O=C(Nc1ccc2oc(-c3ccncc3)nc2c1)c1ccccc1F,-4.45
3,CN(Cc1ccccc1F)C(=O)COc1ccc(C(=O)c2ccccc2)cc1,-13.9
4,Cc1cc(C)cc(N2C(=O)CN(Cc3sccc3C)C2=S)c1,2.49
5,Cc1nc2ccc(NC(=O)c3cc(S(=O)(=O)N(C)c4ccccc4)ccc3Cl)cc2s1,4.9
6,CCC(C)NS(=O)(=O)c1ccc(NC(=O)C2CCCO2)cc1 (stereo not drawn),17.8
7,CSCC[C@H](NC(=O)C(C)(C)Oc1ccc(Cl)cc1)c1nc2ccccc2[nH]1,8.89
8,Cc1ccc(CCNC(=O)CCNS(=O)(=O)c2ccc3c(c2)oc(=O)n3C)cc1,-18
9,FC(F)(F)c1cnc(Oc2cccc3ccccc23)c(Cl)c1,5.05
10,Cc1ccc(S(=O)(=O)NC23CC4CC(CC(C4)C2)C3)cc1,3.97
11,CCC(=O)N1CCc2cc(S(=O)(=O)CCC(=O)N3CCN(c4ccc(C(C)=O)cc4)CC3)ccc21,13.1
12,CN(C)S(=O)(=O)c1ccc(Cl)c(C(=O)NC2=NCCS2)c1,15.9
13,CSc1ccc(/C=N/N2CCN(Cc3ccccc3)CC2)cc1,-5.46
14,COc1ccc(N2CCN(C(=O)Cn3c(=O)[nH]c4ccccc4c3=O)CC2)cc1,14.7
15,CCCc1nc(NCc2ccc3c(c2)OCO3)c2nnn(Cc3ccccc3Cl)c2n1,11.5
16,Cc1cc(NC(=O)CSc2[nH]c(=O)cc(C(F)(F)F)c2C#N)no1,-2.45
17,CC(Oc1ccccc1)C(=O)Nc1ccc(S(=O)(=O)N2CCCC2)cc1 (stereo not drawn),8.84
18,N#Cc1c(NC(=O)c2cnn3cccnc23)sc2c1CCCC2,19.6
19,CC(C)c1cc(C(=O)N2CCCC(N3CCN(c4ccc(F)cc4)CC3)C2)no1 (stereo not drawn),-72.1
20,COCCCNC(=O)Nc1ccc(Br)cc1Cl,1.18
21,CN(c1ccccc1C(=O)Nc1cccc([N+](=O)[O-])c1)S(=O)(=O)c1ccccc1,-63.2

row,SMILES,"hERG current change (%, negative = inhibition) at 10uM [%]"
1,CCCCC(=O)Nc1nc(C)c(-c2csc(Nc3cc(OC)ccc3OC)n2)s1,5.95
2,CCCn1c2ccccc2c2cnn(CC(=O)N(CC)CC)c(=O)c21,-2.37
3,Cc1ccc(C2(c3noc(CN(C)Cc4cnn(C)c4)n3)CCCC2)cc1,8.58
4,N#C/C(=C/c1ccc([N+](=O)[O-])cc1)C(N)=O,12.8
5,COc1ccc(OC/C(O)=C(\C#N)c2nc3ccccc3[nH]2)cc1,-0.578
6,CCCC[N+]12C3C[C@H](C4[C@H](O)[C@]5(C[C@@H]41)c1ccccc1N(C)[C@@H]35)[C@H](CC)[C@H]2O.[I-] (stereo partly drawn),-56.4
7,COc1ccc(C2C(C(C)=O)=C(O)C(=O)N2c2ccc(Br)cc2)cc1 (stereo not drawn),3.44
8,O=C(NCC1CCCN(C(=O)c2cccnc2)C1)c1ccc(-c2ccccc2)cc1 (stereo not drawn),-26.8
9,CCOC(=O)c1ccccc1NS(=O)(=O)c1cnn(CC)c1C,6.25
10,Cn1nc(C(=O)OCC(=O)Nc2sccc2C(N)=O)c2ccccc2c1=O,0.397
11,COc1ccc(N2C(=NC(=O)C3CCCCC3)SC3CS(=O)(=O)CC32)cc1Cl (stereo not drawn),-20.9
12,CCOCCn1c(CN2CCN(C(c3ccccc3)c3ccccc3)CC2)nc2c1c(=O)n(C)c(=O)n2C,-31.6
13,Cl.Nc1ncnc2nc[nH]c12,4.95
14,Cc1cccnc1NC(=O)c1ccc(S(=O)(=O)N2CCCCC2)cc1,12.8
15,CC(C)N1CCC(n2nccc2NC(=O)c2ccc3c(c2)OCO3)CC1,4.27
16,COc1ccccc1OCCN1CSC(=S)N(C)C1,-25.7
17,CCOc1ccccc1NC(=O)c1cccc(S(=O)(=O)N(Cc2ccccc2)c2ccccc2OC)c1,10.5
18,COC(=O)C(=Nc1ccccc1)/C(C(=O)C(=O)N(C)c1ccccc1)=C(\O)c1ccccc1,22.7
19,Cc1ccc(NC(=O)CCc2c(C)nn(-c3ccc(N4CCCCC4)nn3)c2C)cc1,-1.15
20,CCN(CC)S(=O)(=O)c1ccc(Oc2ccc(S(=O)(=O)N(CC)CC)cc2)cc1,-22.7
21,CC(CCc1ccccc1)NC(=O)CCN1N=C(c2ccccc2)CCC1=O (stereo not drawn),-27.6
